Measured values reported in the supplement of paper PMC3334620.
Whole data set: some 33,000 sequences, median “E-score (-0.5 to 0.5)” near -0.012, cut for the highest 2% near 0.29. This is one part of the list.

target: T1, Ybr033w (UniProt P38073); assay: PBM E-score (8-mer binding enrichment) (E-score (-0.5 to 0.5)); higher = stronger / more preferred TF binding; most listed sequences are background and not binding sites; settings: protein concentration: 200 nM; construct: GST-full length
T1 sequence: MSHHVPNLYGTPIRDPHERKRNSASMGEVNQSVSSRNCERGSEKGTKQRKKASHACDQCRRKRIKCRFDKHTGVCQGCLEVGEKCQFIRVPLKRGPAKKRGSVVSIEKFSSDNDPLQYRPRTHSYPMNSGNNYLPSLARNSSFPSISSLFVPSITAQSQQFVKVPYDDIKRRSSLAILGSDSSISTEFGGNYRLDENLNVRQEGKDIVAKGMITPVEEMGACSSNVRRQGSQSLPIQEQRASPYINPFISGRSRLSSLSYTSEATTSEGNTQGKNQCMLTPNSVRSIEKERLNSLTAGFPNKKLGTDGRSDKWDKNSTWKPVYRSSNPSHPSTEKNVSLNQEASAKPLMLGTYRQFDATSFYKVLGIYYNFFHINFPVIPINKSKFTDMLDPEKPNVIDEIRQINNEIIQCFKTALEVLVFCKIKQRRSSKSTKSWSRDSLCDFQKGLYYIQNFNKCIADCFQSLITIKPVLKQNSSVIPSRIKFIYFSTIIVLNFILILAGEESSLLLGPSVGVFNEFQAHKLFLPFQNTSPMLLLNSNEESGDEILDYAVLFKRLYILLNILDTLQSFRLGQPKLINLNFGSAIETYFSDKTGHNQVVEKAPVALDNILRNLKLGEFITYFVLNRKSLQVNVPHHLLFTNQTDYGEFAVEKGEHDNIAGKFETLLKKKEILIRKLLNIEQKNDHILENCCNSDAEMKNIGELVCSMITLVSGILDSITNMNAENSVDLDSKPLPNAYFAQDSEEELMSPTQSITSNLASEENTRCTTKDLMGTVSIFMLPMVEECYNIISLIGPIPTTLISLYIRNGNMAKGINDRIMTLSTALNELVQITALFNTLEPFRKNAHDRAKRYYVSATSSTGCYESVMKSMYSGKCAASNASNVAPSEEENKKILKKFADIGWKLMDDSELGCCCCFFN
How it was run: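 Each ungapped eight-base word and its reverse complement, pooled, received an E-score from the Universal PBM Analysis Suite. Underlying scans, normalised with masliner, recorded fluorescent anti-GST bound to GST-tagged yeast transcription factors. These were applied at about 100-200 nM to universal all-10-mer Agilent arrays double-stranded by primer extension.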

Row | Sequence | PBM E-score
1 | CTTCTACC | -0.16
2 | ACATAGGC | 0.0136
3 | CTGCGGCC | -0.157
4 | CTGCGGGC | -0.214
5 | ACTATAGT | 0.267
6 | AATATCAG | 0.299
7 | GTTCGCAA | 0.0647
8 | CTTAAAAC | 0.226
9 | CGCTAGAC | -0.219
10 | CGCCGGCG | 0.11
11 | CATTAAAG | 0.147
12 | ACAACACC | -0.066
13 | AATCGGGT | 0.185
14 | AAAATGAG | 0.0599
15 | AATGACGG | 0.0823
16 | CACTGTGC | 0.0811
17 | CACAGGGG | -0.309
18 | ATCGCTAG | -0.0838
19 | GGGGAAGA | -0.0775
20 | TGCGAACA | 0.0792
21 | ACTCCAAA | 0.153
22 | CTTCCCTA | -0.0955
23 | ACCATCCC | -0.0578
24 | AGTTGCCA | -0.164
25 | CCTGTCGA | -0.0611

Row | Sequence | PBM E-score
26 | CTGGTAAC | -0.0508
27 | AGCCGCTG | -0.164
28 | CACCTTCA | -0.0187
29 | ACCCGTGA | -0.206
30 | CTGCTAAC | 0.0163
31 | ACCACACC | -0.238
32 | GGGACCCC | -0.33
33 | AAGGAGGT | -0.256
34 | CTCCTCGC | -0.257
35 | ATATGCGG | -0.0555
36 | AGCCGCTC | -0.0937
37 | ACGGAGTG | -0.0703
38 | AGCGCCAT | -0.223
39 | CAAGTACC | -0.111
40 | AGGTCGGC | -0.115
41 | AACTCTAG | -0.00073
42 | AGATCCCT | -0.163
43 | TATGTGGA | 0.195
44 | ATGACCGG | -0.357
45 | GATTCTCC | 0.155
46 | AGTATTTC | 0.34
47 | CCCCTGAC | -0.14
48 | CCCTTCAA | -0.159
49 | AAACTCGT | 0.185
50 | AAATCGGT | -0.0416

Row | Sequence | PBM E-score
51 | TAGGAGAA | 0.0551
52 | ACTCGAGC | -0.0991
53 | CAGTTAGC | -0.0937
54 | AACGATCA | 0.195
55 | AAACTGAG | -0.018
56 | GTGGCCGA | -0.174
57 | AGCAGGAC | -0.0888
58 | GTGGATTA | 0.164
59 | CACTCAGA | -0.0316
60 | AAGGGGAA | -0.233
61 | ATAAGCGG | -0.0643
62 | AATCTGGG | 0.00147
63 | GCACCCAC | -0.0839
64 | AACAGACT | 0.0277
65 | AGCTAGGA | 0.0422
66 | ACTAGGAT | 0.0472
67 | CCCGTACC | -0.111
68 | AGTAGAAG | 0.0782
69 | AAGACAGT | 0.0667
70 | ACAGGGGC | -0.265
71 | CCCCGAAC | -0.183
72 | CAGTGGTA | -0.0548
73 | CAGAGCGA | 0.105
74 | GTGGTTTA | 0.034
75 | TTATTCAA | 0.253

Row | Sequence | PBM E-score
76 | AGGGGCGA | -0.321
77 | AACCCTCG | -0.175
78 | GCGCGCCA | 0.0819
79 | ACATCTAA | 0.0234
80 | CCTCGCAA | -0.14
81 | AGGGTCCA | -0.217
82 | ATGATAGG | -0.0354
83 | AGTCAAAT | 0.188
84 | GCATACGC | -0.0482
85 | AGCAGTAA | 0.0321
86 | CGCTTCAC | -0.0967
87 | GGGGAACA | 0.00453
88 | ATACCCGA | 0.0226
89 | ACTCTTGC | -0.0574
90 | AGAGTAGG | 0.0322
91 | ATCTGAGG | 0.0161
92 | GAATTGTC | -0.0273
93 | CGACCCAA | -0.107
94 | ACGTTCTC | 0.142
95 | AGCAGAGG | -0.268
96 | CTCCCGCC | -0.191
97 | TCCAGAAA | 0.171
98 | CAGTTACG | -0.2
99 | CTAAGTGA | 0.17
100 | ATGCTATC | 0.0225

Row | Sequence | PBM E-score
101 | ACTGTGAA | 0.0984
102 | ACTCGATC | -0.00471
103 | GGTGAGAA | 0.0936
104 | CACTTGCA | -0.0412
105 | CAAGGCGA | -0.246
106 | AGGAAACG | 0.0312
107 | TGAGGCAA | -0.00163
108 | CCCGTAAC | -0.094
109 | ACTCTATG | -0.106
110 | ACGGTCAG | -0.252
111 | CTCCGGAG | 0.00475
112 | GACTTAGA | -0.058
113 | ACATTGAG | 0.0191
114 | CAACAAAA | 0.139
115 | TCCGCGGA | -0.037
116 | CACCCTTC | -0.192
117 | TTACATAA | 0.271
118 | CACAACTC | 0.125
119 | ATGCATCA | 0.263
120 | AAACGCCC | -0.0301
121 | GCATCTCA | 0.0768
122 | CAAACAAG | 0.0729
123 | ATACAAGG | 0.11
124 | CTTTATCA | 0.198
125 | GCAGCGCA | -0.171

Row | Sequence | PBM E-score
126 | ACCGGCAA | -0.207
127 | AACAGCCG | -0.0717
128 | CAGATGAA | 0.0518
129 | GACGACAC | 0.0332
130 | ACAGCATA | 0.0939
131 | AGTTTACC | 0.131
132 | CCTAGGCC | -0.125
133 | AGATTCAG | 0.014
134 | CAAAGGGG | -0.201
135 | ACTCTCCT | -0.188
136 | CGGAGTGA | 0.0416
137 | AGCCAGCG | -0.201
138 | ACTCTCTA | 0.0813
139 | CAAAGATC | 0.188
140 | AATGTCAG | -0.0558
141 | GCCGACGC | -0.141
142 | ACCCAGCA | -0.163
143 | ATCATCTA | 0.19
144 | ATCCTAAT | 0.0746
145 | ATAGTGAC | 0.117
146 | CATTGGCG | -0.154
147 | CCTTGTTC | -0.124
148 | CACCCAGA | -0.0258
149 | GCAGCGAA | 0.0437
150 | CTACAGAC | -0.057

Row | Sequence | PBM E-score
151 | AGGAACAG | -0.0964
152 | ATTCTAGG | 0.0155
153 | GATGTGCA | -0.0129
154 | ATCAAATA | 0.228
155 | ATGTTTTC | 0.247
156 | CAAGAACG | -0.0132
157 | ATGACGTA | 0.108
158 | ATGGTTGC | -0.219
159 | AGCTCACG | -0.088
160 | ACAAAGCA | 0.169
161 | ACTTAACA | 0.16
162 | CGCTACAC | -0.191
163 | ATACCTGC | -0.0785
164 | CGAGACAA | 0.0277
165 | AGCTAATG | 0.0499
166 | CCATTCAA | 0.0756
167 | ATCGTAAT | 0.194
168 | AATGTGTA | 0.113
169 | CACTATAC | 0.125
170 | GGAGACAC | -0.189
171 | AGGGACGG | -0.347
172 | CGCCGCGC | -0.227
